{
  "source": "the supplement of paper PMC4604168 (melanoma cell lines)",
  "note": "This is one part of the list. Many values rest on one well or one pass, so single values are uncertain.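 Further: cell number obtained by counting DAPI-stained nuclei in high-throughput microscope images with image analysis software, screen run in 1,536-well plates.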",
  "data": [
    {"system": "MEL-HO", "experiment": "cell count relative to DMSO control; melanoma cells; higher = more viable cells", "details": "library dose: low library concentration; 72 h", "units": {"cell count": "%"}, "values": [
      {"compound": "CN1CCN(c2ccc3nc(-c4c(N)c5c(F)cccc5[nH]c4=O)[nH]c3c2)CC1", "note": "[Dovitinib] + COc1cc2ncnc(Nc3ccc(Oc4ccccc4)cc3)c2cc1OC [SrcI1] (first compound 0.1 µM, partner dose 2 µM)", "cell count": 105},
      {"compound": "CN1CCN(c2ccc3nc(-c4c(N)c5c(F)cccc5[nH]c4=O)[nH]c3c2)CC1", "note": "[Dovitinib] + CC(C)CCN1c2nc(Nc3cc(F)c(O)c(F)c3)ncc2N(C)C(=O)C1C [BID1870] (first compound 0.1 µM, partner dose 0.2 µM)", "cell count": 79.6},
      {"compound": "CN1CCN(c2ccc3nc(-c4c(N)c5c(F)cccc5[nH]c4=O)[nH]c3c2)CC1", "note": "[Dovitinib] + O=C1NC(=O)/C(=C/c2ccc(-c3ccc(F)cc3O)o2)S1 [AS252424] (first compound 0.1 µM, partner dose 1 µM)", "cell count": 94.2},
      {"compound": "C=CCNC1=C2C[C@@H](C)C[C@H](OC)[C@H](O)[C@@H](C)/C=C(\\C)[C@H](OC(N)=O)[C@@H](OC)/C=C\\C=C(/C)C(=O)NC(=CC1=O)C2=O", "note": "[Tanespimycin] + CCN(CC)CCCCNc1ncc2cc(-c3cc(OC)cc(OC)c3)c(NC(=O)NC(C)(C)C)nc2n1 [PD173074] (first compound 0.002 µM, partner dose 0.1 µM)", "cell count": 95.9},
      {"compound": "C[C@@H](Oc1cc(-c2cnn(C3CCNCC3)c2)cnc1N)c1c(Cl)ccc(F)c1Cl", "note": "[Crizotinib] + CCCCCCCCCCCC1=C(O)C(=O)C=C(O)C1=O [Embelin] (first compound 0.2 µM, partner dose 1.2 µM)", "cell count": 96.3},
      {"compound": "CN1CCN(c2ccc3nc(-c4c(N)c5c(F)cccc5[nH]c4=O)[nH]c3c2)CC1", "note": "[Dovitinib] + CCCCCCCCCCCC1=C(O)C(=O)C=C(O)C1=O [Embelin] (first compound 0.1 µM, partner dose 1.2 µM)", "cell count": 98.7},
      {"compound": "CN1CCN(c2ccc3nc(-c4c(N)c5c(F)cccc5[nH]c4=O)[nH]c3c2)CC1", "note": "[Dovitinib] + CCN(CC)CCCCNc1ncc2cc(-c3cc(OC)cc(OC)c3)c(NC(=O)NC(C)(C)C)nc2n1 [PD173074] (first compound 0.1 µM, partner dose 0.1 µM)", "cell count": 106},
      {"compound": "CS(=O)(=O)CCNCc1ccc(-c2ccc3ncnc(Nc4ccc(OCc5cccc(F)c5)c(Cl)c4)c3c2)o1", "note": "[lapatinib] + COC(=O)c1sccc1S(=O)(=O)Nc1ccc(Nc2ccccc2)cc1OC [GSK0660] (first compound 0.8 µM, partner dose 1 µM)", "cell count": 80.5},
      {"compound": "C=CCNC1=C2C[C@@H](C)C[C@H](OC)[C@H](O)[C@@H](C)/C=C(\\C)[C@H](OC(N)=O)[C@@H](OC)/C=C\\C=C(/C)C(=O)NC(=CC1=O)C2=O", "note": "[Tanespimycin] + COC(=O)c1sccc1S(=O)(=O)Nc1ccc(Nc2ccccc2)cc1OC [GSK0660] (first compound 0.002 µM, partner dose 1 µM)", "cell count": 106},
      {"compound": "C[C@@H](Oc1cc(-c2cnn(C3CCNCC3)c2)cnc1N)c1c(Cl)ccc(F)c1Cl", "note": "[Crizotinib] + O=S(=O)(c1ccccc1)N(CC(F)(F)F)c1ccc(C(O)(C(F)(F)F)C(F)(F)F)cc1 [T0901317] (first compound 0.2 µM, partner dose 1.4 µM)", "cell count": 81.5},
      {"compound": "C=CCNC1=C2C[C@@H](C)C[C@H](OC)[C@H](O)[C@@H](C)/C=C(\\C)[C@H](OC(N)=O)[C@@H](OC)/C=C\\C=C(/C)C(=O)NC(=CC1=O)C2=O", "note": "[Tanespimycin] + CCCCCCCCCCCC1=C(O)C(=O)C=C(O)C1=O [Embelin] (first compound 0.002 µM, partner dose 1.2 µM)", "cell count": 72.5},
      {"compound": "CNC(=O)c1cc(Oc2ccc(NC(=O)Nc3ccc(Cl)c(C(F)(F)F)c3)cc2)ccn1", "note": "[sorafenib] + COC(=O)c1sccc1S(=O)(=O)Nc1ccc(Nc2ccccc2)cc1OC [GSK0660] (first compound 0.4 µM, partner dose 1 µM)", "cell count": 98.8},
      {"compound": "CNC(=O)c1cc(Oc2ccc(NC(=O)Nc3ccc(Cl)c(C(F)(F)F)c3)cc2)ccn1", "note": "[sorafenib] + CCN(CC)CCCCNc1ncc2cc(-c3cc(OC)cc(OC)c3)c(NC(=O)NC(C)(C)C)nc2n1 [PD173074] (first compound 0.4 µM, partner dose 0.1 µM)", "cell count": 103},
      {"compound": "CN1CCN(c2ccc3nc(-c4c(N)c5c(F)cccc5[nH]c4=O)[nH]c3c2)CC1", "note": "[Dovitinib] + O=c1cc(-c2cccc3c2Sc2ccccc2S3)oc(N2CCOCC2)c1 [KU55933] (first compound 0.1 µM, partner dose 1 µM)", "cell count": 103},
      {"compound": "C=CCNC1=C2C[C@@H](C)C[C@H](OC)[C@H](O)[C@@H](C)/C=C(\\C)[C@H](OC(N)=O)[C@@H](OC)/C=C\\C=C(/C)C(=O)NC(=CC1=O)C2=O", "note": "[Tanespimycin] + O=C1NC(=O)/C(=C/c2ccc(-c3ccc(F)cc3O)o2)S1 [AS252424] (first compound 0.002 µM, partner dose 1 µM)", "cell count": 97.8},
      {"compound": "C=CCNC1=C2C[C@@H](C)C[C@H](OC)[C@H](O)[C@@H](C)/C=C(\\C)[C@H](OC(N)=O)[C@@H](OC)/C=C\\C=C(/C)C(=O)NC(=CC1=O)C2=O", "note": "[Tanespimycin] + O=C(O)C(=O)Nc1sc2c(c1C(=O)O)CCNC2 [TCS401] (first compound 0.002 µM, partner dose 1.66667 µM)", "cell count": 100},
      {"compound": "C=CCNC1=C2C[C@@H](C)C[C@H](OC)[C@H](O)[C@@H](C)/C=C(\\C)[C@H](OC(N)=O)[C@@H](OC)/C=C\\C=C(/C)C(=O)NC(=CC1=O)C2=O", "note": "[Tanespimycin] + COc1ccc2c(c1)CCC1C2CCC2(C)C(NCCCCCCN3C(=O)C=CC3=O)CCC12 [U73122] (first compound 0.002 µM, partner dose 0.4 µM)", "cell count": 108},
      {"compound": "CNC(=O)c1cc(Oc2ccc(NC(=O)Nc3ccc(Cl)c(C(F)(F)F)c3)cc2)ccn1", "note": "[sorafenib] + N#Cc1c(O)c2c(-c3ccc(-c4ccccc4O)cc3)csc2[nH]c1=O [A769662] (first compound 0.4 µM, partner dose 2 µM)", "cell count": 95.9},
      {"compound": "CS(=O)(=O)CCNCc1ccc(-c2ccc3ncnc(Nc4ccc(OCc5cccc(F)c5)c(Cl)c4)c3c2)o1", "note": "[lapatinib] + Oc1cc(-c2nc(-c3ccccc3)[nH]c2-c2ccncc2)ccc1Cl [L779450] (first compound 0.8 µM, partner dose 0.2 µM)", "cell count": 81.9},
      {"compound": "CN1CCN(c2ccc3nc(-c4c(N)c5c(F)cccc5[nH]c4=O)[nH]c3c2)CC1", "note": "[Dovitinib] + O=C(O)C(=O)Nc1sc2c(c1C(=O)O)CCNC2 [TCS401] (first compound 0.1 µM, partner dose 1.66667 µM)", "cell count": 94.5},
      {"compound": "C=CCNC1=C2C[C@@H](C)C[C@H](OC)[C@H](O)[C@@H](C)/C=C(\\C)[C@H](OC(N)=O)[C@@H](OC)/C=C\\C=C(/C)C(=O)NC(=CC1=O)C2=O", "note": "[Tanespimycin] + COc1ccc(COc2ccc(Cc3cnc(N)nc3N)cc2OC)cc1 [GW2580] (first compound 0.002 µM, partner dose 1 µM)", "cell count": 82},
      {"compound": "CNC(=O)c1cc(Oc2ccc(NC(=O)Nc3ccc(Cl)c(C(F)(F)F)c3)cc2)ccn1", "note": "[sorafenib] + COc1ccc(-c2ccc3c(N4CCOCC4)nc(N4C[C@@H](C)O[C@@H](C)C4)nc3n2)cc1CO [KU0063794] (first compound 0.4 µM, partner dose 0.02 µM)", "cell count": 86.5},
      {"compound": "CNC(=O)c1cc(Oc2ccc(NC(=O)Nc3ccc(Cl)c(C(F)(F)F)c3)cc2)ccn1", "note": "[sorafenib] + COc1ccc2c(c1)CCC1C2CCC2(C)C(NCCCCCCN3C(=O)C=CC3=O)CCC12 [U73122] (first compound 0.4 µM, partner dose 0.4 µM)", "cell count": 99},
      {"compound": "C[C@@H](Oc1cc(-c2cnn(C3CCNCC3)c2)cnc1N)c1c(Cl)ccc(F)c1Cl", "note": "[Crizotinib] + O=c1cc(-c2cccc3c2Sc2ccccc2S3)oc(N2CCOCC2)c1 [KU55933] (first compound 0.2 µM, partner dose 1 µM)", "cell count": 93.9},
      {"compound": "C[C@@H](Oc1cc(-c2cnn(C3CCNCC3)c2)cnc1N)c1c(Cl)ccc(F)c1Cl", "note": "[Crizotinib] + COC(=O)c1sccc1S(=O)(=O)Nc1ccc(Nc2ccccc2)cc1OC [GSK0660] (first compound 0.2 µM, partner dose 1 µM)", "cell count": 97.6},
      {"compound": "CS(=O)(=O)CCNCc1ccc(-c2ccc3ncnc(Nc4ccc(OCc5cccc(F)c5)c(Cl)c4)c3c2)o1", "note": "[lapatinib] + O=C(O)C(=O)Nc1sc2c(c1C(=O)O)CCNC2 [TCS401] (first compound 0.8 µM, partner dose 1.66667 µM)", "cell count": 97.5}
    ]}
  ]
}
